# Test results published in PubChem BioAssay AID1347071 (National Center for Advancing Translational Sciences (NCATS), 2019).
# Out of some 410,000 compounds screened, about 260 (0.063%) were called active. Inconclusive results, whose numbers are uncertain, are shown with a selection of clear calls. Calls follow the shape of the dose curve; as a rule, active = well fitted activation curve with a large enough effect; inconclusive = small, poorly fitted or top-dose-only effect; inactive = no such curve, though single readings can be large or run the other way. No potency is given beside an inconclusive call; the fits are too rough.
# Test: qHTS for compounds that reverse cellular toxicity of Amyloid beta (A-beta) peptide in yeast: Primary Screen; also: nearly all actives have a fitted effect of over 55% in size
# Settings: yeast expressing A-beta42, growth rescue, OD600, 48 h; growth rescue: at 46.1 µM (top of the series), 0% DMSO, 100% iron-clioquinol control
# Summary of the method: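 Growth rescue measured by 600 nm absorbance after 48 h yeast culture at 30 C with compound. Values normalized between DMSO and an equimolar ferric chloride plus clioquinol control.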
# Potency is read from the fitted curve at half-maximal effect; tags tell the direction and shape of the fitted curve.
Structure (SMILES),Potency,growth rescue
CCOc1ccccc1NC(=O)C1CCCC1,inactive,–
N#C/C(=C\c1ccccc1)C(=O)NC1CC1,"inconclusive [activator, partial curve, poor fit]",–
Cc1cc(C(=O)N2CCC2(C)C(=O)NCC(C)(C)C)nn1C (stereo not drawn),inactive,–
Cc1ccc(-n2c(-c3ccc(Cl)cc3)n[nH]c2=S)c(C)c1,"inconclusive [activator, full curve, poor fit]",–
CCN(CC)c1nc(NN)nc(Nc2ccc(C)c(Cl)c2)n1,"inconclusive [activator, single point]",–
COc1ccccc1-c1c(C(F)(F)F)oc2cc(OC(=O)c3ccc([N+](=O)[O-])cc3)ccc2c1=O,"inconclusive [activator, partial curve, poor fit]",–
O=C1CSC(=S)N1c1ccc(F)c(Cl)c1,"inconclusive [activator, partial curve]",–
O=S(=O)(Nc1ccc(Nc2ccccc2)cc1)c1ccc(F)cc1,"inconclusive [activator, partial curve, poor fit]",–
Cc1ccc2cc3cc(C(=O)N4CCN(c5ccccc5)CC4)sc3nc2c1,inactive,–
O=[N+]([O-])CC(c1ccccc1)c1c[nH]c2ccccc12 (stereo not drawn),"inconclusive [activator, partial curve, poor fit]",–
Cc1cc(=O)oc2c(C)c3occc3cc12,"inconclusive [activator, partial curve]",–
COC(=O)[C@@]1(Cc2ccc(OC)cc2)[C@@H]2C(=CC(=O)[C@H]2CC(=O)C(=O)N2CCCC2)CN1C(=O)c1ccccc1,inactive,–
CC1CC(C)CN(C(=S)SCc2nc(N)nc(Nc3ccccc3)n2)C1 (stereo not drawn),"inconclusive [activator, full curve]",–
CCc1ccc(NS(=O)(=O)c2c(-c3ccccc3)csc2C(=O)OC)cc1,inactive,–
Cc1nn(Cc2c(F)c(F)c(F)c(F)c2F)c(C)c1NC(=O)c1ccc(COc2ccc(Cl)cc2Cl)o1,"inconclusive [activator, partial curve]",–
CCOC(=O)c1ccccc1NC(=O)COC(=O)CCNS(=O)(=O)c1ccccc1,"inconclusive [activator, partial curve, poor fit]",–
CN(C)S(=O)(=O)c1cc(NC(=O)COC(=O)Cc2ccc(Cl)cc2Cl)ccc1Cl,"inconclusive [activator, partial curve, poor fit]",–
CC(C)(C)CC(C)(C)N=C1Nc2cc(Cl)c(Cl)cc2NC12C[C@H]1CCC(=O)N3CC[C@@H](C2)[C@@H]13 (stereo partly drawn),"inconclusive [activator, single point]",–
CC(=O)c1ccc(N2C(=O)Nc3ccccc3S2(=O)=O)cc1,inactive,–
COC(=O)Cn1c(C)nc2ccccc21,inactive,–
CNC(=S)SCCOc1ccc(C)cc1,"inconclusive [activator, single point]",–
Cn1cnnc1SCC(=O)Nc1sc2c(c1C(N)=O)CCC2,inactive,–
CN(C)CCNc1oc(-c2cccc(Cl)c2)nc1C#N,"inconclusive [activator, full curve, poor fit]",–

Structure (SMILES),Potency,growth rescue
O=C(N/N=C/c1ccc(O)c2ncccc12)c1cccc(Br)c1,"inconclusive [activator, single point]",–
O=C(NCc1cccs1)c1ccc2nc([C@@H]3O[C@H](CO)[C@H](O)[C@H](O)[C@H]3O)[nH]c2c1,"inconclusive [activator, partial curve, poor fit]",–
Oc1ccc(Nc2nc(-c3cccnc3)cs2)cc1,inactive,–
CC1CC1C(=O)OCC(=O)NCc1ccc(Cl)cc1Cl (stereo not drawn),"inconclusive [activator, full curve, poor fit]",–
CCOC(=O)c1cc(C)n(Cc2cccc(OC)c2OC)c1C,inactive,–
CCOC(=O)Cn1c(-c2cccs2)cc2cc(Cl)ccc21,inactive,–
S=C(NCc1ccccc1)N/N=C/c1cccs1,"inconclusive [activator, partial curve, poor fit]",–
CN(c1cccc(F)c1)c1cc2c(c3c1ccn3C)C1CCC2O1 (stereo not drawn),"inconclusive [activator, single point]",–
COc1ccc(Oc2c(C)nc(SCC(=O)c3ccc(Cl)cc3)[nH]c2=O)cc1,"inconclusive [activator, single point]",–
Cc1noc(C)c1COC(=O)CCc1nc2ccccc2c(=O)[nH]1,"inconclusive [activator, partial curve, poor fit]",–
COc1ccc(N2CCN(C(=O)Cn3c(-c4cccs4)cc4ccccc43)CC2)cc1,inactive,–
CC(=O)c1ccccc1NC(=O)COC(=O)CCCN1C(=O)c2cccc3cccc(c23)C1=O,"inconclusive [activator, partial curve, poor fit]",–
Clc1cccc(-n2ncc3c(Nc4ccc5c(c4)OCCO5)ncnc32)c1,inactive,–
COC(=O)c1ccc(NC(=S)NC2CC3CCC2C3)cc1 (stereo not drawn),"inconclusive [activator, single point]",–
CC=Cc1cc(OC)c2c(c1)C(C)C(c1ccc(O)c(OC)c1)O2 (stereo not drawn),inactive,–
Cc1ccc(Cl)cc1NC(=S)N1CCC(c2ccccc2)C1 (stereo not drawn),"inconclusive [activator, partial curve, poor fit]",–
O=C(NCc1ccccc1)C(c1ccccc1)n1c(=O)c(-c2cc3ccccc3[nH]2)nc2ccccc21 (stereo not drawn),"inconclusive [activator, partial curve, poor fit]",–
Cc1cccc(NC(=S)N2CCn3cccc3C2c2cccnc2)c1 (stereo not drawn),"inconclusive [activator, partial curve, poor fit]",–
CCOC(=O)C1CCN(C(=O)Cn2ncc3c4ccccc4n(Cc4ccc(F)cc4)c3c2=O)CC1,inactive,–
C=CCc1ccccc1OCc1nc2ccccc2n1CC,"inconclusive [activator, partial curve]",–
Cc1cccc(N2C(=O)N3[C@@H]4c5ccccc5OC[C@@H]4[C@@H](c4ccccc4)[C@@]3(C)C2=O)c1,inactive,–
COc1ccc(-c2nc(-c3ccc(Br)o3)no2)cc1,inactive,–
Cn1c2ccccc2c2cnn(CC(=O)N3CCN(c4cccc(C(F)(F)F)c4)CC3)c(=O)c21,inactive,–

Structure (SMILES),Potency,growth rescue
COc1ccc(C2Nc3cccc4cccc(c34)N2)cc1Br,"inconclusive [activator, partial curve, poor fit]",–
CCOc1ccc(C(=O)Nc2cccc(NC(=O)c3ccc(C(C)(C)C)cc3)c2)cc1Br,inactive,–
Cc1ccc2c(C)c(C(=O)N(C)C(C)c3ccon3)oc2c1C (stereo not drawn),inactive,–
FC(F)Oc1ccc(/C=N/n2c(Cc3ccc(Br)cc3)n[nH]c2=S)cc1,"inconclusive [activator, single point]",–
Cc1ncoc1C(=O)Nc1ccc(Oc2ccccc2)cc1,inactive,–
Cc1occc1C(=O)N/N=C/c1ccc(Br)s1,"inconclusive [activator, single point]",–
c1ccc(CCNc2nc3ccccc3s2)cc1,"inconclusive [activator, partial curve, poor fit]",–
COC(=O)c1cn(CC(=O)N2CCCCC2C)c2ccccc12 (stereo not drawn),"inconclusive [activator, full curve, poor fit]",–
O=C(Nc1c(F)cccc1F)c1ccc2c(c1)CCN2S(=O)(=O)c1ccccc1,"inconclusive [activator, partial curve, poor fit]",–
O=C(Cc1cccc2ccccc12)Nc1cccnc1,–,inconclusive: 34.6% [activator]
O=S(=O)(NC1c2cccc3cccc(c23)C1Sc1ncccn1)c1ccc(Cl)cc1 (stereo not drawn),"inconclusive [activator, full curve, poor fit]",–
O=C(NCSc1ccnc(SCNC(=O)c2ccc(F)cc2)n1)c1ccc(F)cc1,"inconclusive [activator, single point]",–
COCCCNC(=O)c1ccc(-n2c(-c3ccccc3)cc3c2CCCC3)cc1,inactive,–
O=C(NC(=S)N1CCN(c2ccc(F)cc2)CC1)c1cccs1,"inconclusive [activator, partial curve, poor fit]",–
COc1ccc(Nc2nc3cc(-c4ccsc4)sc3c(=O)n2C)cc1OC,inactive,–
Cc1c(Cl)cnc(NC(=O)COC(=O)C2CCCC2)c1Cl,"inconclusive [activator, partial curve, poor fit]",–
CCc1ccc(NC(=S)Nc2cc(C(=O)O)ccc2N2CC3CC(C2)c2cccc(=O)n2C3)cc1 (stereo not drawn),"inconclusive [activator, partial curve, poor fit]",–
CCN(C(=O)Nc1cn(CC(C)C)c(=O)c2ccccc12)c1cc(C)ccc1C,inactive,–
COc1ccc(S(=O)(=O)N2CCN(C(=O)c3sccc3-c3ccccc3)CC2)cc1,"inconclusive [activator, partial curve, poor fit]",–
Cc1oc(-c2ccccc2Cl)nc1Cn1c(SCc2cccc(F)c2)nc2cccnc21,"inconclusive [activator, single point]",–
Cc1cccc(Cn2nc(-n3cccc3)c3c(C)cc(C)nc32)c1,"inconclusive [activator, partial curve, poor fit]",–
CN(CC(=O)Nc1ccccc1C(F)(F)F)C(=O)CSCc1ccc(Cl)c(Cl)c1,"inconclusive [activator, single point]",–
